# Assay results reported in PubChem BioAssay AID1963981 (Molecular Pharmacology Branch, DTP, NCI, 2024).
# Certain results were filed several times, with different values. This list holds those alone. An entry can have further records. Values that stand side by side repeat one measurement in other runs, samples, wells, individuals or studies.
# Tested on: 354836-022-R-J1-PDC multicell spheroid viability
# Assay: Anticancer human tumor 354836-022-R-J1-PDC patient-derived head and neck squamous cell carcinoma cell line growth inhibition [PI3K]
# Conditions: for viability, T/C: stronger effect = lower value
# Source text: Combinatorial screen of targeted agents with the PI3K inhibitors inavolisib, alpelisib, duvelisib, and copanlisib in multi-cell type tumor spheroids
# A high-throughput screen of multi-cell type tumor spheroids was designed to identify active combinations of targeted small molecules and PI3K pathway inhibitors. Complex spheroids include a stromal component modeled by human endothelial cells (HUVEC) and fibroblasts modeled by human mesenchymal stem cells (MSCs). The concentration ranges selected for each drug and investigational agent were based upon clinically achievable concentrations if the clinical Cmax of the agent was known.
# Compounds. The drugs and investigational agents: inavolisib (NSC800729), alpelisib (NSC765974), duvelisib (NSC772469), copanlisib (NSC816437), ipatasertib (NSC767898), afuresertib (NSC778305), talazoparib (NSC767125), sapanisertib (NSC764658), selumetinib (NSC741078), tovorafenib (DAY101, NSC766906), vemurafenib (NSC761431), ravoxertinib (NSC781343), sotorasib (NSC818433), MRTX1133 (NSC 836407), abemaciclib (NSC 768073), palbociclib (NSC758247), venetoclax (NSC 766270), SY5609 (NSC837396), enzalutamide (NSC755605), and darolutamide (NSC825331), were obtained from the National Cancer Institute (NCI) Developmental Therapeutics Program Chemical Repository. The FDA-approved anticancer drug set is available from the NCI Developmental Therapeutics Program. […] The stock solutions were prepared in dimethyl sulfoxide (DMSO, Sigma-Aldrich, St. Louis, MO, cat. D2650) at 800-fold the tested concentration and stored at -70 degrees C prior to their use. All drugs and investigational agents were tested over a range starting from a high concentration at or near the clinical Cmax and decreasing in half-log increments. If the clinical Cmax for an agent had not been determined, the highest concentration tested was 10 microM.
# Cell Culture. All cells were maintained in an incubator at 37 degrees C and 5% CO2 with 95% humidity. The PDC lines were cultured according to standard operating procedures established by the NCI PDMR (https://pdmr.cancer.gov/sops/default.htm). All PDCs were thawed and cultured in Matrigel-coated flasks prepared with a working solution of 1X Ham's F-12 nutrient mix, without supplementation (Invitrogen, Waltham, MA, cat. 11765054), 100 U/mL penicillin-streptomycin (Invitrogen, cat. 15140122), and 2.5% Matrigel (Corning Inc., Corning, NY, cat. 354248) for the first three passages. The 354836-022-R-J1-PDC, 475296-252-R-J1-PDC, and 997726-040-R-J2-PDC lines were cultured in 6A media, which includes advanced DMEM/F-12 (Thermo Fisher Scientific, cat. 12634028), 10 mM HEPES (Thermo Fisher Scientific, cat. 15630080), 1X GlutaMAX supplement (Thermo Fisher Scientific, cat. 35050061), 0.1 mg/mL primocin (InvivoGen, San Diego, CA, cat. ant-pm-2), 10% defined fetal bovine serum, heat inactivated (HyClone Laboratories Inc., Logan, UT, cat. SH30070.03HI), 50% L-WRN conditioned media (ATCC, cat. CRL-3276), 1.25 mM N-Acetyl-L-cysteine (Sigma-Aldrich, cat. A9165), 10 mM nicotinamide (Sigma-Aldrich, cat. N0636), 1X B-27 supplement (Thermo Fisher Scientific, cat. 17504044), 1X N-2 supplement (Thermo Fisher Scientific, cat. 17502048), and 10 microM Y-27632 dihydrochloride (Tocris Bioscience, Bristol, United Kingdom, cat. 1254). The 624824-186-R-J2-PDC line was cultured in 6C/Colon 1B media, which includes all 6A media components plus 50 ng/mL human EGF recombinant protein (Thermo Fisher Scientific, cat. PHG0311). […]
# 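Further: spheroids exposed to agents for seven days before the viability read.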
compound,measurement,setting,value
CC1(C)CCC(CN2CCN(c3ccc(C(=O)NS(=O)(=O)c4ccc(NCC5CCOCC5)c([N+](=O)[O-])c4)c(Oc4cnc5[nH]ccc5c4)c3)CC2)=C(c2ccc(Cl)cc2)C1,IC50,compound alone,"4.1 µM, 3.89 µM, > 10 µM, 4.33 µM"
same,"viability, T/C",compound alone 0.1 µM,"95, 89.5, 78.8, 108%"
same,"viability, T/C",compound alone 10 µM,"3.32, 12.6, 105, 3.61%"
CCN1CCN(Cc2ccc(Nc3ncc(F)c(-c4cc(F)c5nc(C)n(C(C)C)c5c4)n3)nc2)CC1,"viability, T/C",compound alone 1 µM,"72.7, 70.2, 59.1, 43%"
C#Cc1c(F)ccc2cc(O)cc(-c3ncc4c(N5CC6CCC(C5)N6)nc(OCC56CCCN5CC(F)C6)nc4c3F)c12 (centres undefined),"viability, T/C",compound alone 0.316 µM,"92, 90, 109, 121%"
CCCS(=O)(=O)Nc1ccc(F)c(C(=O)c2c[nH]c3ncc(-c4ccc(Cl)cc4)cc23)c1F,"viability, T/C",compound alone 0.0316 µM,"91.8, 108, 85.7, 80.9%"
C=CC(=O)N1CCN(c2nc(=O)n(-c3c(C)ccnc3C(C)C)c3nc(-c4c(O)cccc4F)c(F)cc23)C(C)C1 (centres undefined),"viability, T/C",compound alone 1 µM,"87.4, 94.9, 101, 114%"
same,"viability, T/C",compound alone 3.16 µM,"97.4, 110, 121, 90.8%"
Cc1nc(NC(=O)N2CCCC2C(N)=O)sc1-c1ccnc(C(C)(C)C(F)(F)F)c1 (centres undefined),"viability, T/C",compound alone 0.316 µM,"84.3, 94.2, 95.9, 87.6, 95.8, 86.7, 83, 110%"
